Values joined by “and” are separate entries in the source; they are usually repeats but may differ in a detail not shown here. Equal values may be shown once. Hit rate of the full screen: of about 110,000 compounds, about 230 (0.21%) showed an effect of 50% or more. This is one part of the list.
Molecular target: DPAP1 (Plasmodium falciparum, UniProt Q8IIJ9)
Experiment: primary screen, percent inhibition; read by cleavage of a fluorogenic dipeptide substrate; higher = more effect of the substance
Parameters: species or system P. falciparum D10 trophozoite lysates; single well
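Also: 30 min substrate incubation versus DMSO and 10 µM JCP410 controls.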

Sequence of DPAP1 (Q8IIJ9 whole entry, looked up): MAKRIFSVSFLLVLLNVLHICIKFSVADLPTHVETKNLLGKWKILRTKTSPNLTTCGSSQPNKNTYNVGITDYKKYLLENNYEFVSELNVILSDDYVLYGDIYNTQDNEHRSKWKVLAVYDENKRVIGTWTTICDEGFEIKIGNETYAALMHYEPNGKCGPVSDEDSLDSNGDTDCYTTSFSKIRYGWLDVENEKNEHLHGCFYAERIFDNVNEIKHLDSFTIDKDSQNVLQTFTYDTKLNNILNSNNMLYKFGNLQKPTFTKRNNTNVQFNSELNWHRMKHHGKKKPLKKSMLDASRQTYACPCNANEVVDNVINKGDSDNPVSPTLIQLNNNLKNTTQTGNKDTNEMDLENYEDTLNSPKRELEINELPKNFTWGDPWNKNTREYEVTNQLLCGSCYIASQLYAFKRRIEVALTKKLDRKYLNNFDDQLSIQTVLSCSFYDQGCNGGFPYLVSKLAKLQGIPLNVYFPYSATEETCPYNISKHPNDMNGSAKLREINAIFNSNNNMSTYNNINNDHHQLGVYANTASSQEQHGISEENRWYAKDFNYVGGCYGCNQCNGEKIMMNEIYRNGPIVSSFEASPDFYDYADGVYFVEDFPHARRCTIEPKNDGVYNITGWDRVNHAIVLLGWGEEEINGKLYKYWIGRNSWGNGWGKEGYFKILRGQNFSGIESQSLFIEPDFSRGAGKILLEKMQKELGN

Row | SMILES | % Inhibition @ 10 uM
1 | O=C(NCCCN1CCCC1=O)c1cc2c(s1)CSC2 | 2.12%
2 | CCn1c(C)cc(/C=C2/NC(=O)N(c3ccccc3)C2=O)c1C | -2.19%
3 | O=S(=O)(Nc1cccc(Cl)c1Cl)c1ccc(Cl)cc1 | 4.04%
4 | Cc1ccccc1OCCn1c(C)nc2ccccc21 | -8.85%
5 | Cc1ccc(F)cc1NC(=O)C1CCCN1C(=O)OCC(C)C (centres unmarked) | -4.65%
6 | COc1ccc(S(N)(=O)=O)cc1C(=O)NCc1ccccc1 | 6.52%
7 | Fc1ccc(CN2CCN(c3ccccn3)CC2)c(F)c1 | -3.94%
8 | NC1=[N+](CC(=O)c2ccccc2)Cc2ccccc21 | 4.35%
9 | CCn1nc(NS(=O)(=O)c2ccccc2)c2cc3cccc(C)c3nc21 | 1%
10 | CCC(C)c1ccc(NS(=O)(=O)c2c(C)cc(C)cc2C)cc1 (centres unmarked) | 2.22%
11 | Cc1cc(C)c(S(=O)(=O)NCc2ccccc2)c(C)c1 | -4.43%
12 | N#Cc1c(NCc2ccccc2)ccnc1O | -4.96%
13 | CC(C)c1ccc(-c2c(NCCCc3ccccc3)c(=O)c2=O)cc1 | -4.07%
14 | CCN(Cc1ccccc1)C(=O)Cn1c(SCc2cccc(F)c2)nc2cccnc21 | -1.68%
15 | CCc1ccc(CNc2nc3nc(C)cc(O)n3n2)cc1 | -0.671%
16 | O=C(Cn1cnc2ccccc21)c1ccccc1 | 2.73%
17 | O=C(c1ccc(CNc2c(N3CCOCC3)c(=O)c2=O)cc1)N1CC=C(c2ccccc2)CC1 | 1.15%
18 | COc1ccc(S(=O)Cc2ccc(C(=O)NCCc3ccc(OC)c(OC)c3OC)o2)cc1 (centres unmarked) | -4.82%
19 | CC(=O)c1c(C)cc(C)c(C(=O)O)c1C | -0.744%
20 | COc1cccc(-c2cc(C(=O)NCC34CC5CC(CC(C5)C3)C4)on2)c1 | 3.27%
21 | Cc1ccc(-n2nc3c(N4CCC(C(=O)NCc5ccc(Cl)cc5)CC4)nnc(C)c3c2C)cc1 | 4.4%
22 | CCO/C(O)=C1\C(C)=NC2=C(C(=O)CC(C)(C)C2)C1c1c(C)nn(-c2ccccc2)c1C (centres unmarked) | 5.5%
23 | CCOC(=O)c1c(C)oc2nc(C)nc(NCc3ccco3)c12 | 2.77%
24 | O=C(Nc1ccc(Br)cc1F)C1CC(=O)N(c2ccccc2)C1 (centres unmarked) | 11.7%
25 | Cc1c(C(=O)N(Cc2ccc(Cl)cc2)C2CCS(=O)(=O)C2)oc2ccccc12 (centres unmarked) | -1.33%

Row | SMILES | % Inhibition @ 10 uM
26 | COc1ccc(-n2nc3cc(C)c(NC(=O)c4cc(OC)c(OC)c(OC)c4)cc3n2)cc1 | -5.06%
27 | Cc1nnc(NC(=O)CSc2cn(Cc3ccccc3C)c3ccccc23)s1 | 1.62%
28 | CCSc1nnc(NC(=O)C2CCC(CNS(=O)(=O)c3cccc4nsnc34)CC2)s1 (centres unmarked) | 1.26%
29 | CC1=C(C(=O)Nc2cccnc2)C(c2ccc(Cl)c(Cl)c2)n2nc(-c3cccs3)nc2N1 (centres unmarked) | 2.53%
30 | NCC(O)COCCC12CC3CC(CC(C3)C1)C2 (centres unmarked) | 0.00784%
31 | CC(=O)N1N=C(c2ccccc2)CC1c1ccc(N(C)C)cc1 (centres unmarked) | 5.87% and 1.92%
32 | CCOC(=O)c1sc(NC(=O)c2noc3c2CCc2ccccc2-3)c(C(=O)OCC)c1C | -0.591%
33 | O=C(CCCOc1ccc(Cl)cc1Cl)Nc1ccc(S(=O)(=O)N2CCCCC2)cc1 | -2.82%
34 | CCOC(=O)N1CCN(c2cc(C)nc3c(-c4ccccc4OC)c(C)nn23)CC1 | -2.72%
35 | Cc1ccc(N2CCN(Cc3c(C)n(C)n(-c4ccccc4)c3=O)CC2)cc1 | 3.15%
36 | CCC1C(=O)C(CC)C(c2ccccc2)NC1c1ccccc1 (centres unmarked) | 1%
37 | COc1ccc(-c2[nH]nc3c2C(c2c[nH]nc2-c2ccc(F)cc2)C(C#N)=C(N)O3)cc1OC (centres unmarked) | -0.25%
38 | NC(=O)c1ccccc1NC(=O)c1ccc(Cn2cc(Br)cn2)o1 | -7.08%
39 | N#Cc1cc2c(=O)n3ccccc3nc2n(CCc2ccccc2)c1=O | 1.12%
40 | Cc1ccc(NC(=O)c2ccco2)cc1Br | -5.36%
41 | COc1ccc(S(=O)(=O)c2c(SC)nn(C)c2N)cc1 | 2.14%
42 | CCOc1ccc2nc(N3CCCC(C(=O)NC4CCCc5ccccc54)C3)sc2c1 (centres unmarked) | -3.35%
43 | Cc1nnc(N2CCC(C(=O)N(C)Cc3ccccc3)CC2)c2nn(-c3ccc(Cl)cc3)c(C)c12 | 10.2%
44 | CCOC(=O)N1C(=O)c2ccccc2NC1(C(F)(F)F)C(F)(F)F | -10.7%
45 | CC1CCCCN1C(=O)C1Sc2nnc(-c3ccccc3)n2NC1c1ccc(Cl)cc1 (centres unmarked) | 7.94%
46 | Cc1ccc(C2CC(C(F)(F)F)n3nc(C(=O)Nc4cccnc4Cl)cc3N2)cc1 (centres unmarked) | 7.93%
47 | CCCC[S+](O)CC(O)COc1ccc(Cl)cc1 (centres unmarked) | -0.636%
48 | CCCCN1C(=O)C(c2c(C)nn(-c3ccccc3)c2O)(C(F)(F)F)C2=C1CC(C)(C)CC2=O (centres unmarked) | 1.91%
49 | O=C1Nc2ccccc2C1(O)c1c[nH]c2ccccc12 (centres unmarked) | 4.9%
50 | COC(=O)c1nc(N)n(-c2nc(-c3cccs3)cc(C(F)(F)F)n2)n1 | -0.591%

Row | SMILES | % Inhibition @ 10 uM
51 | COc1ccc(NC(=O)COc2ccccc2C(C)(C)C)cc1OC | -1.63%
52 | CCCC12CN3CC(C)(CN(C1)C3c1cc3ccccc3[nH]1)C2=O (centres unmarked) | -5.33%
53 | COCCCNC(=O)c1cc(-c2ccc(OC)cc2)nc2[nH]nc(-c3ccc(F)cc3)c12 | 3.27%
54 | COc1ccc(Br)cc1C1N2CC3(C)CN1CC(c1ccccc1)(C2)C3=O (centres unmarked) | 6.7%
55 | O=C1NC2=C(CCc3ccccc32)C(c2ccccc2)N1 (centres unmarked) | 5.37%
56 | Cc1ccccc1NC1=NC(=O)/C(=C/c2cccn2C)S1 | -2.22%
57 | CC(C)(C)OC(=O)N[C@@H](CC1CCCCC1)C(=O)NCC#N | -6.98%
58 | O=c1c(Cc2ccccc2)c(N2CCOCC2)nc2n1CCCS2 | 3.81%
59 | CC(C)Oc1ccc(CC(=S)N2CCOCC2)cc1 | 3.05%
60 | O=C1C2C3C=CC(C3)C2C(=O)N1Cc1ccccc1Cl (centres unmarked) | 5.49%
61 | COc1ccc(NC(=O)c2cnn(-c3ccccc3)c2C)cc1 | -1.52%
62 | CCOC(=O)N1CCC(NC(=O)C2CCN(S(=O)(=O)N3CCC(C)CC3)CC2)CC1 | -4.97%
63 | CC(C)NS(=O)(=O)c1ccc([N+](=O)[O-])cc1 | -3.48%
64 | O=C(O)CCC(=O)Nc1ccccc1C(=O)NCc1ccccc1 | -6.57%
65 | CC(C)c1ccc(NC(=O)CN(Cc2ccccc2)S(=O)(=O)c2ccc3c(c2)OCCO3)cc1 | 0.52%
66 | O=C(CSC(c1ccccc1)c1ccccc1)N1CCOCC1 | -4.48%
67 | CCc1nc2cc(Oc3ccc4[nH]c(CC)nc4c3)ccc2[nH]1 | 1.19%
68 | CCc1nn(CC(=O)NCc2cccs2)c(=O)c2cc3occc3n12 | -3.79%
69 | Cc1c(OCC(=O)O)ccc2c1oc(=O)c1ccccc12 | 4.66%
70 | O=C(O)[C@@H]1CSC(c2cccnc2)N1 (some centres unmarked) | -9.13%
71 | CCCCN(Cc1ccccc1)C(=O)C1CCN(S(=O)(=O)c2c(C)n[nH]c2C)CC1 | -2.7%
72 | COCCOC(=O)c1c(C)n(-c2ccc(F)cc2)c2c1cc(O)c1ccccc12 | 2.62%
73 | CC1=C(C#N)C(c2ccc(F)cc2)C2=C(O)CC(c3ccccc3)CC2=N1 (centres unmarked) | -11.9%
74 | CCOC(=O)C1=C2N(C)c3ccccc3N2CCC1=O | -0.424%
75 | Cc1cc(N2CCC(C)CC2)n2nnnc2n1 | 2.55%

Row | SMILES | % Inhibition @ 10 uM
76 | C(=C\c1ccccc1)/CN1CCN(C2CCCCCC2)CC1 | -3.6%
77 | CCOC(=O)N1CCN(C(=O)C2CC(c3ccccc3F)=NO2)CC1 (centres unmarked) | 1.24%
78 | O=C(CN(C1CCCCC1)S(=O)(=O)c1ccc(F)cc1)N1CCN(c2ccccc2F)CC1 | 3.72%
79 | COc1cc2ccccc2cc1C(=O)Nc1ccccc1C | -4.23%
80 | CCOc1ccc(Oc2nc(NCC(C)C)nc(OC)n2)nn1 | -0.958%
81 | CCCNC(=O)CS(=O)(=O)Cc1nc(-c2ccccc2C)oc1C | -1.89%
82 | COc1cc(C(=O)Nc2nc3c(s2)C(=O)CC(C)(C)C3)cc(OC)c1OC | 0.565%
83 | C=CCn1c(SCC(=O)Nc2cc(C)on2)nc2sc(-c3ccccc3)cc2c1=O | -3.46%
84 | O=C(O)c1cc(-c2ccc(O)c(O)c2)nc2[nH]nc(-c3ccc(F)cc3)c12 | 2.33%
85 | CCO/C(O)=C1/C(C)=Nc2nc3ccccc3n2C1c1ccc(SC)cc1 (centres unmarked) | 3.32%
86 | CCOc1ccc(CN2C(=O)CCC2(C)C(=O)NC2CCCC(C)C2C)cc1OC (centres unmarked) | 0.387%
87 | Cc1oc2ccc(O)c(CN3CC4(C)CC3CC(C)(C)C4)c2c1C(=O)NC1CCCC1 (centres unmarked) | 2.14%
88 | COc1ccc(S(=O)(=O)N2CCC(NC(=O)NCc3cccnc3)CC2)cc1 | 5.43%
89 | N#C/C(=C\c1cccn1-c1nnc(-c2ccccc2)s1)C(=O)NCc1ccco1 | 1.9%
90 | C=CCO/C(O)=C1/C(C)=Nc2ncnn2C1c1ccccc1C (centres unmarked) | 0.0842%
91 | COc1ccc(CCC(=O)Nc2noc3ccccc23)cc1 | 5.29%
92 | Cc1cc(CNC(=O)c2nc(-c3cccs3)no2)c2ccccc2n1 | 4.41%
93 | CCC1CCC(C(=O)NC(C(=O)NCCCN2CCCCC2C)C(C)C)CC1 (centres unmarked) | -6.5%
94 | COc1ccc(/C=C2\CCCC3=C2Nc2ncnn2C3c2ccc(OC)cc2)cc1 (centres unmarked) | 6.96% and 10.4%
95 | COc1ccccc1-c1nc2c(c(SC)n1)Cc1c(CO)cnc(C)c1O2 | 2.75%
96 | CSc1nnc(Nc2ccccc2)n1-c1ccccc1 | 2.66%
97 | O=C(N1CCCCC1)C1(c2ccccc2)CCOCC1 | 0.214%
98 | Cc1cccc(NC(=O)C2CCCN(S(=O)(=O)c3ccc4nc(O)ccc4c3)C2)n1 (centres unmarked) | -1.39%

— paper PMC6919601, “Identification of Plasmodium dipeptidyl aminopeptidase allosteric inhibitors by high throughput screening” (PLoS ONE, 2019)
